We go through nine variants from the supplement of paper PMC12217912.

First the molecules themselves.
B1: TEV protease; numbered along this chain (parent)
chain: MGESLFKGPRDYNPISSSICHLTNESDGHTTSLYGIGFGPFIITNKHLFRRNNGTLVVQSLHGVFKVKDTTTLQQHLVDGRDMIIIRMPKDFPPFPQKLKFREPQREERICLVTTNFQTKSMSSMVSDTSCTFPSGDGIFWKHWIQTKDGQCGSPLVSTRDGFIVGIHSASNFTNTNNYFTSVPKNFMELLTNQEAQQWVSGWRLNADSVLWGGHKVFMVKPEEPFQPVKEATQL

In the assay the parent is B1. Nature of the assay: raw area under fraction-flipped curve 0-4 h after induction (AUC4h, not background-subtracted), DNA-recorder readout of cleavage of the substrate (dimensionless); higher = more cleavage of the substrate by the protease variant. Particulars: temperature: 34 °C; time window: 0-4 h after rhamnose induction. On the procedure:
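In vivo DNA recorder in E. coli TOP10(DE3) ΔrhaA at 34 °C. Each TEVp single-site mutant (parent TEVp 0) is paired with a single-site variant of the 7-mer TEVs (canonical ENLYFQ|S). The substrate sits between flexible linkers in a Bxb1-sfGFP-TEVs-SsrA fusion, so cleavage stabilises Bxb1 and speeds flipping of a recombination array, read by NGS. The value is the raw area under the fraction-flipped curve over 0-4 h after rhamnose induction (AUC4h), with ≥20 reads per time point. It is not background-subtracted; inactive controls average about 0.047.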

This is one part of the list. The full chains were built here from the parent and the listed change. Inactive controls read about 0.05.
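Also: Bxb1 expression induced with 0.2% (w/v) L-rhamnose at OD600 near 0.5, cultures sampled hourly, flipped fraction per protease–substrate barcode pair counted by paired-end Illumina sequencing.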

For the variant MGESLFKGPRDYNPISSSICHLTNASDGHTTSLYGIGFGPFIITNKHLFRRNNGTLVVQSLHGVFKVKDTTTLQQHLVDGRDMIIIRMPKDFPPFPQKLKFREPQREERICLVTTNFQTKSMSSMVSDTSCTFPSGDGIFWKHWIQTKDGQCGSPLVSTRDGFIVGIHSASNFTNTNNYFTSVPKNFMELLTNQEAQQWVSGWRLNADSVLWGGHKVFMVKPEEPFQPVKEATQL [E25A], the “area with substrate ENLAFQS” value turned out to be 0.0664, the “area with substrate ENLCFQS” value is 0.0585, the “area with substrate ENLDFQS” value is 0.0591 and the “area with substrate ENLEFQS” value worked out at 0.0611. Moreover, the “area with substrate ENLFFQS” value was 0.0938, the “area with substrate ENLGFQS” value was found to be 0.0601, the “area with substrate ENLHFQS” value was 0.0896 and the “area with substrate ENLIFQS” value was 0.0996. Moreover, the “area with substrate ENLKFQS” value was 0.0642, the “area with substrate ENLLFQS” value was found to be 0.0865, the “area with substrate ENLNFQS” value was found to be 0.0756 and the “area with substrate ENLPFQS” value was found to be 0.0782. In addition, the “area with substrate ENLQFQS” value came out at 0.0686, the “area with substrate ENLRFQS” value was 0.0738, the “area with substrate ENLSFQS” value stood at 0.0729 and the “area with substrate ENLTFQS” value is 0.078. Also, the “area with substrate ENLVFQS” value worked out at 0.071.

As for MGESLFKGPRDYNPISSSICHLTNESDGYTTSLYGIGFGPFIITNKHLFRRNNGTLVVQSLHGVFKVKDTTTLQQHLVDGRDMIIIRMPKDFPPFPQKLKFREPQREERICLVTTNFQTKSMSSMVSDTSCTFPSGDGIFWKHWIQTKDGQCGSPLVSTRDGFIVGIHSASNFTNTNNYFTSVPKNFMELLTNQEAQQWVSGWRLNADSVLWGGHKVFMVKPEEPFQPVKEATQL [H29Y], the “area with substrate ENLAFQS” value stood at 0.0592, the “area with substrate ENLDFQS” value amounted to 0.0517, the “area with substrate ENLEFQS” value worked out at 0.0461 and the “area with substrate ENLFFQS” value is 0.0655. The “area with substrate ENLGFQS” value was determined as 0.0696, the “area with substrate ENLHFQS” value was 0.0626, the “area with substrate ENLIFQS” value is 0.075 and the “area with substrate ENLKFQS” value stood at 0.0973. Further, the “area with substrate ENLLFQS” value was found to be 0.0711, the “area with substrate ENLMFQS” value is 0.0809, the “area with substrate ENLNFQS” value is 0.0617 and the “area with substrate ENLQFQS” value is 0.0836. For the same variant, the “area with substrate ENLRFQS” value amounted to 0.0657, the “area with substrate ENLSFQS” value was found to be 0.067, the “area with substrate ENLVFQS” value amounted to 0.115 and the “area with substrate ENLWFQS” value came to 0.0811.

As to MGESLFKGPRDYNPISSSICHLTNESDGWTTSLYGIGFGPFIITNKHLFRRNNGTLVVQSLHGVFKVKDTTTLQQHLVDGRDMIIIRMPKDFPPFPQKLKFREPQREERICLVTTNFQTKSMSSMVSDTSCTFPSGDGIFWKHWIQTKDGQCGSPLVSTRDGFIVGIHSASNFTNTNNYFTSVPKNFMELLTNQEAQQWVSGWRLNADSVLWGGHKVFMVKPEEPFQPVKEATQL [H29W], the “area with substrate ENLAFQS” value was found to be 0.0525, the “area with substrate ENLDFQS” value was determined as 0.049, the “area with substrate ENLEFQS” value was determined as 0.0686 and the “area with substrate ENLFFQS” value was found to be 0.0932. In addition, the “area with substrate ENLGFQS” value was found to be 0.0504, the “area with substrate ENLHFQS” value was found to be 0.0857, the “area with substrate ENLIFQS” value is 0.0808 and the “area with substrate ENLLFQS” value worked out at 0.0772. The “area with substrate ENLMFQS” value was 0.0739, the “area with substrate ENLNFQS” value amounted to 0.0687, the “area with substrate ENLRFQS” value stood at 0.0971 and the “area with substrate ENLSFQS” value came out at 0.0662. Besides, the “area with substrate ENLVFQS” value worked out at 0.0633 and the “area with substrate ENLWFQS” value amounted to 0.0574.

MGESLFKGPRDYNPISSSICHLTNESDGQTTSLYGIGFGPFIITNKHLFRRNNGTLVVQSLHGVFKVKDTTTLQQHLVDGRDMIIIRMPKDFPPFPQKLKFREPQREERICLVTTNFQTKSMSSMVSDTSCTFPSGDGIFWKHWIQTKDGQCGSPLVSTRDGFIVGIHSASNFTNTNNYFTSVPKNFMELLTNQEAQQWVSGWRLNADSVLWGGHKVFMVKPEEPFQPVKEATQL [H29Q]: the “area with substrate ENLAFQS” value was 0.0672, the “area with substrate ENLDFQS” value was 0.068, the “area with substrate ENLEFQS” value amounted to 0.0699 and the “area with substrate ENLFFQS” value was 0.0831. The “area with substrate ENLHFQS” value is 0.0822, the “area with substrate ENLKFQS” value amounted to 0.0561, the “area with substrate ENLMFQS” value came to 0.057 and the “area with substrate ENLNFQS” value turned out to be 0.0669. The “area with substrate ENLRFQS” value amounted to 0.0608, the “area with substrate ENLSFQS” value came out at 0.0486, the “area with substrate ENLTFQS” value was determined as 0.0582 and the “area with substrate ENLWFQS” value stood at 0.0674.

MGESLFKGPRDYNPISSSICHLTNESDGHTTSQYGIGFGPFIITNKHLFRRNNGTLVVQSLHGVFKVKDTTTLQQHLVDGRDMIIIRMPKDFPPFPQKLKFREPQREERICLVTTNFQTKSMSSMVSDTSCTFPSGDGIFWKHWIQTKDGQCGSPLVSTRDGFIVGIHSASNFTNTNNYFTSVPKNFMELLTNQEAQQWVSGWRLNADSVLWGGHKVFMVKPEEPFQPVKEATQL [L33Q]: the “area with substrate ENLAFQS” value turned out to be 0.0634, the “area with substrate ENLDFQS” value was determined as 0.0622, the “area with substrate ENLFFQS” value came to 0.0762 and the “area with substrate ENLGFQS” value was found to be 0.0666. For the same variant, the “area with substrate ENLHFQS” value was determined as 0.0657, the “area with substrate ENLKFQS” value came to 0.0567, the “area with substrate ENLLFQS” value amounted to 0.0572 and the “area with substrate ENLMFQS” value stood at 0.0658. The “area with substrate ENLNFQS” value is 0.0691, the “area with substrate ENLPFQS” value was found to be 0.0627, the “area with substrate ENLQFQS” value was 0.0602 and the “area with substrate ENLRFQS” value is 0.0565.

For the variant MGESLFKGPRDYNPISSSICHLTNESDGHTTSFYGIGFGPFIITNKHLFRRNNGTLVVQSLHGVFKVKDTTTLQQHLVDGRDMIIIRMPKDFPPFPQKLKFREPQREERICLVTTNFQTKSMSSMVSDTSCTFPSGDGIFWKHWIQTKDGQCGSPLVSTRDGFIVGIHSASNFTNTNNYFTSVPKNFMELLTNQEAQQWVSGWRLNADSVLWGGHKVFMVKPEEPFQPVKEATQL [L33F], the “area with substrate ENLAFQS” value came out at 0.074, the “area with substrate ENLCFQS” value stood at 0.0545, the “area with substrate ENLDFQS” value stood at 0.0613 and the “area with substrate ENLEFQS” value was 0.0588. The “area with substrate ENLFFQS” value stood at 0.0656, the “area with substrate ENLHFQS” value amounted to 0.0956, the “area with substrate ENLIFQS” value was 0.0707 and the “area with substrate ENLKFQS” value came out at 0.0644. Moreover, the “area with substrate ENLNFQS” value was determined as 0.0565, the “area with substrate ENLPFQS” value was determined as 0.0567, the “area with substrate ENLQFQS” value was 0.0595 and the “area with substrate ENLRFQS” value was 0.055. Moreover, the “area with substrate ENLSFQS” value is 0.0594, the “area with substrate ENLTFQS” value is 0.0454, the “area with substrate ENLVFQS” value is 0.0637 and the “area with substrate ENLWFQS” value stood at 0.0486.

Consider MGESLFKGPRDYNPISSSICHLTNEVDGHTTSLYGIGFGPFIITNKHLFRRNNGTLVVQSLHGVFKVKDTTTLQQHLVDGRDMIIIRMPKDFPPFPQKLKFREPQREERICLVTTNFQTKSMSSMVSDTSCTFPSGDGIFWKHWIQTKDGQCGSPLVSTRDGFIVGIHSASNFTNTNNYFTSVPKNFMELLTNQEAQQWVSGWRLNADSVLWGGHKVFMVKPEEPFQPVKEATQL [S26V], for which the “area with substrate ENLAFQS” value is 0.0756, the “area with substrate ENLDFQS” value came out at 0.0705, the “area with substrate ENLEFQS” value was 0.0621 and the “area with substrate ENLFFQS” value is 0.0895. For the same variant, the “area with substrate ENLGFQS” value amounted to 0.0577, the “area with substrate ENLIFQS” value worked out at 0.0703, the “area with substrate ENLKFQS” value was 0.0481 and the “area with substrate ENLMFQS” value was 0.0882. Moreover, the “area with substrate ENLNFQS” value was determined as 0.0708, the “area with substrate ENLPFQS” value amounted to 0.0455, the “area with substrate ENLRFQS” value was 0.068 and the “area with substrate ENLVFQS” value is 0.07. Besides, the “area with substrate ENLWFQS” value worked out at 0.0707.

For MGESLFKGPRDYNPISSSICHLTNESDGHTTNLYGIGFGPFIITNKHLFRRNNGTLVVQSLHGVFKVKDTTTLQQHLVDGRDMIIIRMPKDFPPFPQKLKFREPQREERICLVTTNFQTKSMSSMVSDTSCTFPSGDGIFWKHWIQTKDGQCGSPLVSTRDGFIVGIHSASNFTNTNNYFTSVPKNFMELLTNQEAQQWVSGWRLNADSVLWGGHKVFMVKPEEPFQPVKEATQL [S32N], the “area with substrate ENLAFQS” value was 0.0617, the “area with substrate ENLCFQS” value was 0.048, the “area with substrate ENLDFQS” value came to 0.0775 and the “area with substrate ENLEFQS” value is 0.0637. The “area with substrate ENLFFQS” value came to 0.0693, the “area with substrate ENLGFQS” value was 0.0778, the “area with substrate ENLHFQS” value is 0.0656 and the “area with substrate ENLKFQS” value is 0.0589. Also, the “area with substrate ENLLFQS” value was 0.0749, the “area with substrate ENLNFQS” value came to 0.0677, the “area with substrate ENLPFQS” value stood at 0.0606 and the “area with substrate ENLQFQS” value was found to be 0.0484. In addition, the “area with substrate ENLSFQS” value amounted to 0.0585 and the “area with substrate ENLWFQS” value stood at 0.0566.

For MGESLFKGPRDYNPISSSICHLMNESDGHTTSLYGIGFGPFIITNKHLFRRNNGTLVVQSLHGVFKVKDTTTLQQHLVDGRDMIIIRMPKDFPPFPQKLKFREPQREERICLVTTNFQTKSMSSMVSDTSCTFPSGDGIFWKHWIQTKDGQCGSPLVSTRDGFIVGIHSASNFTNTNNYFTSVPKNFMELLTNQEAQQWVSGWRLNADSVLWGGHKVFMVKPEEPFQPVKEATQL [T23M], the “area with substrate ENLAFQS” value came out at 0.0712, the “area with substrate ENLCFQS” value is 0.0722, the “area with substrate ENLDFQS” value amounted to 0.0642 and the “area with substrate ENLEFQS” value stood at 0.0549. Also, the “area with substrate ENLFFQS” value was 0.0866, the “area with substrate ENLGFQS” value stood at 0.0663, the “area with substrate ENLHFQS” value was determined as 0.0684 and the “area with substrate ENLIFQS” value is 0.0753. In addition, the “area with substrate ENLKFQS” value turned out to be 0.077, the “area with substrate ENLNFQS” value stood at 0.0517, the “area with substrate ENLPFQS” value amounted to 0.0397 and the “area with substrate ENLRFQS” value amounted to 0.0783. Moreover, the “area with substrate ENLVFQS” value worked out at 0.0855 and the “area with substrate ENLWFQS” value is 0.0711.
